Assay results reported in PubChem BioAssay AID686970 (National Center for Advancing Translational Sciences (NCATS), 2013).
Hit rate of the full screen: of about 360,000 compounds, about 6,000 (1.7%) were called active. The inconclusive results got no clear call from the source; some entries with a clear call stand among them for comparison. Calls follow the shape of the dose curve; as a rule, active = well fitted cell-killing curve with a large enough effect; inconclusive = small, poorly fitted or top-dose-only effect, or effect the other way; inactive = flat fitted curve, though single readings scatter. Potencies of inconclusive entries are left out as doubtful fits.
Potency is read from the fitted curve at half-maximal effect; tags tell the direction and shape of the fitted curve.

Assay: qHTS for induction of synthetic lethality in tumor cells producing 2HG: qHTS for the HT-1080-NT fibrosarcoma cell line;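 also: NT is the 2HG producing partner of a matched IDH1 knockdown line; nearly all actives have a fitted effect of over 55% in size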;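 as to activity, negative = less viability: 0% = DMSO-treated cells and -100% = media-only wells without cells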
Conditions: HT-1080-NT fibrosarcoma viability, CellTiter-Glo ATP luminescence, 48 h; activity, negative = less viability: at 46.1 µM (top of the series) unless noted
How it was run: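 Toxicity toward the 2HG-producing NT line was scored as %Activity, normalised to DMSO and no-cell wells, from CellTiter-Glo luminescence after 48 hours' treatment.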
With `COc1ccc(/C=C(\NC(=O)c2ccc([N+](=O)[O-])cc2)C(=O)N2CCOCC2)cc1` the “activity, negative = less viability” value was inactive: 4.67%.
With `COc1cc2oc3ccccc3c2cc1N(CC(=O)N(C)C)S(=O)(=O)c1ccc(C)cc1` the “activity, negative = less viability” value was inactive: -0.324%.
For `CC(C)C[C@H](NC(=O)c1nc[nH]c1C(=O)N[C@@H](CC(C)C)C(=O)OC(C)(C)C)C(=O)OC(C)(C)C`, the Potency was inconclusive [cytotoxic, single point].
For `CCCCN1CCC(=O)NC1=O`, the activity, negative = less viability was inconclusive: -0.0817% [cytotoxic].
In the case of `Cc1cccc(N2CCN(C(=O)c3ccnn3C)CC2)c1C`, the “activity, negative = less viability” value is reported as inactive: -4.14%.
In the case of `COc1ccc(-c2ccc3c(c2)S(=O)(=O)c2cccc(C(=O)NCc4cc(C)oc4C(F)(F)F)c2C3=O)cc1OC`, the “activity, negative = less viability” value is reported as inactive: 0%.
In the case of `C=CCNc1nc(NCc2ccc(N(C)C)cc2)c2sc(-c3ccccc3)cc2n1`, the Potency is reported as inconclusive [cytotoxic, single point].
For `COc1ccccc1CNc1nc2cc(-c3ccccc3C)sc2c(=O)n1C`, the Potency was inconclusive [cytotoxic, single point].
In the case of `O=[N+]([O-])c1cnc(Sc2ccncn2)s1`, the Potency is reported as active: 5.8 µM.
For `COc1ccc(-c2oc3ccc(N4CCOCC4)cc3c2C#CC2(O)CCCCC2)cc1`, the Potency was inconclusive [cytotoxic, single point].
With `O=c1cc(-c2ccccc2)[nH]c2ccccc12` the Potency was inconclusive [cytotoxic, full curve].
In the case of `Cc1ccc(S(=O)(=O)N2CCC(C(=O)NCCCN3CCCCCC3)CC2)cc1`, the activity, negative = less viability is reported as inconclusive: -38.3% [cytotoxic].
For `COc1ccc(-c2[nH]ncc2/C=C(/C#N)C(=O)NC2CCCCCC2)cc1`, the Potency was active: 18.4 µM.
In the case of `COc1ccc(Nc2c3c(nc4ccccc24)CCC3)cc1`, the Potency is reported as active: 23.1 µM.
With `CCNc1ccc(C2(O)C(=O)c3ccccc3C2=O)cc1` the Potency was inconclusive [rising, single point].
In the case of `NNC(=O)c1[nH]c2ccc(Br)cc2c1-c1ccccc1`, the Potency is reported as active: 9.2 µM.
With `CCCCCC/C=C/c1ccc(OC)c([C@H]2[C@H]3C=CC[C@@H](C)[C@@H]3C(=O)N2Cc2ccccc2)c1` the “activity, negative = less viability” value was inactive: 8.45%.
In the case of `O=C(CSc1ccc2ccccc2n1)N/N=C/c1ccccc1O`, the Potency is reported as inconclusive [cytotoxic, partial curve].
With `COc1cccc(CN(C)C(=O)COc2ccc(C(=O)c3ccc(Cl)cc3)cc2)c1OC` the Potency was inconclusive [cytotoxic, single point].
In the case of `O=C(/C=C/c1ccccc1)Nc1nc(-c2ccncc2)cs1`, the Potency is reported as inconclusive [cytotoxic, single point].
For `CCOC(=O)Cc1csc(NC(=S)NC(=O)c2ccccc2C)n1`, the Potency was inconclusive [cytotoxic, single point].
With `C[C@@H]1[C@@H](Sc2ccccc2)CC(=O)O[C@@H]1c1ccc(-c2ccccc2)cc1` the Potency was inconclusive [cytotoxic, single point].
With `COc1ccc(CNC(=O)C2CC(c3ccc(OC)cc3)=NO2)cc1` (stereo not drawn) the “activity, negative = less viability” value was inactive: -1.36%.
With `Cn1c(=O)c2cc(S(=O)(=O)Nc3ccc4c(c3)OCO4)ccc2n(C)c1=O` the Potency was inconclusive [cytotoxic, single point].
With `C=CCCC(=O)Nc1nc(C)c(-c2csc(Nc3cc(OC)ccc3OC)n2)s1` the Potency was active: 7.31 µM.
In the case of `Cc1ccc(O)c(-c2[nH]ncc2C(=O)c2ccc(Cl)cc2)c1`, the “activity, negative = less viability” value is reported as inactive: -2.72%.
With `CCOC(=O)c1ccc(NC(=O)CCC(=O)NCc2ccco2)cc1` the Potency was inconclusive [cytotoxic, single point].
For `C/C(=N\NC(=O)c1cccc(Br)c1)c1ccccn1`, the activity, negative = less viability was inconclusive: -29.1% [cytotoxic].
With `CCN(CC)C(=O)C1=C(C)N(Cc2ccc(C(C)(C)C)cc2)C(=O)C(CC(=O)NCc2cccc3ccccc23)C1` (stereo not drawn) the Potency was inconclusive [cytotoxic, partial curve].
In the case of `CCCCc1cc(=O)oc2c(C)c(OCC(=O)NCC3CCC(C(=O)O)CC3)ccc12` (stereo not drawn), the “activity, negative = less viability” value is reported as inactive: -0.474%.
With `CC(=NNc1nc2ccccc2s1)c1ncccn1` the Potency was inconclusive [cytotoxic, partial curve].
In the case of `COc1cc(-c2cnc3c(NC=O)cc(-c4ccsc4)cn23)cc(OC)c1OC`, the Potency is reported as inconclusive [cytotoxic, full curve].
In the case of `CCC(C(=O)NC1CCCC1)n1c(-c2ccccn2)nc2ccccc21` (stereo not drawn), the “activity, negative = less viability” value is reported as inactive: 19.2%.
With `COc1ccc(/C=C2\NC(=S)N(CC3CCCO3)C2=O)c(OC)c1` (stereo not drawn) the Potency was inconclusive [cytotoxic, single point].
With `COCCNc1nc(C)cc(-c2cc(C(=O)Nc3ccccc3)on2)n1` the Potency was inconclusive [rising, single point].
In the case of `CC(C)CNc1ncnc2c1ncn2[C@H]1CN(Cc2ccc3c(c2)OCO3)C[C@@H](CO)O1`, the Potency is reported as inconclusive [rising, single point].
For `COC(=O)c1c(NC(=O)CSc2nnnn2-c2ccccc2)sc2c1CCC(C(C)(C)C)C2` (stereo not drawn), the “activity, negative = less viability” value was inactive: 14%.
For `O=C(CN1C(=O)NC2(CCCC2)C1=O)N1CCN(Cc2ccccc2)CC1`, the “activity, negative = less viability” value was inactive: 4.53%.
For `COc1c(O[C@@H]2O[C@H](CO)[C@@H](O)[C@H](O)[C@H]2O)cc2c(c1OC)-c1ccc(SC)c(=O)cc1C(NC(C)=O)CC2` (stereo partly drawn), the Potency was inconclusive [cytotoxic, single point].
For `COc1cccc(/C(O)=C2/C(=O)C(=O)N(c3cc(C)on3)C2c2cccs2)c1` (stereo not drawn), the Potency was inconclusive [cytotoxic, single point].
For `Cc1nnc(NC(=O)c2ccc(S(=O)(=O)N3CCCCC3)cc2)s1`, the “activity, negative = less viability” value was inactive: 2.24%.
For `CC1(C)C(=O)N(c2ccccc2)C1c1ccccc1O` (stereo not drawn), the Potency was inconclusive [cytotoxic, single point].
In the case of `CN(C)S(=O)(=O)c1cc(C(=O)OCCn2cnc3c2c(=O)n(C)c(=O)n3C)ccc1Cl`, the “activity, negative = less viability” value is reported as inactive: 0%.
With `CSc1ccc(CNC(=O)c2ccc(NC(=O)C3=CSCCO3)cc2)cc1` the Potency was inconclusive [cytotoxic, single point].
For `CCOC(=O)C1CC2=C(CCCC2=O)NC1=O` (stereo not drawn), the “activity, negative = less viability” value was inactive: -0.284%.
In the case of `CCOc1ccc(Cn2nnc(C(=O)Nc3ccc(OC)cc3OC)c2N)cc1`, the “activity, negative = less viability” value is reported as inactive: -2.78%.
For `CC(C)(C)n1nnnc1C(c1cccnc1)N(Cc1ccccc1)Cc1cccs1` (stereo not drawn), the Potency was inconclusive [cytotoxic, single point].
In the case of `CCOc1ccc(S(=O)(=O)Nc2cccc(Cl)c2)cc1`, the Potency is reported as inconclusive [cytotoxic, single point].
With `O=C(Nc1cccc(C(F)(F)F)c1)c1cccnc1NCCc1ccccc1` the Potency was inconclusive [cytotoxic, single point].
With `O=c1[nH]c(=O)n(C2OC(CO)C(O)C2O)cc1F` (stereo not drawn) the Potency was active: 10.3 µM.
With `CCN(CC)CCCN(C(=O)c1ccco1)c1nc(-c2ccc(Cl)cc2)cs1` the Potency was active: 23.1 µM.
In the case of `CCC(c1ccc(O)cc1)C(CC)c1ccc(O)cc1` (stereo not drawn), the Potency is reported as inconclusive [cytotoxic, single point].
With `Cc1nn(CC(O)COc2ccc3c(c2)CCC3)c(C)c1Br` (stereo not drawn) the “activity, negative = less viability” value was inactive: -9.44%.
In the case of `CCOC(=O)C1=C(C)N=C2SCCC(=O)N2[C@@H]1/C=C/c1ccccc1`, the “activity, negative = less viability” value is reported as inactive: -1.07%.
With `COc1cc([N+](=O)[O-])ccc1NC(=O)COC(=O)CCOc1ccc(C)cc1` the Potency was active: 20.6 µM.
In the case of `Cn1c(=O)c2c(nc(CN3CCc4ccccc4C3)n2Cc2ccc(F)cc2)n(C)c1=O`, the “activity, negative = less viability” value is reported as inactive: -0.88%.
With `O=C(N/C=N/OCc1ccc(Cl)cc1Cl)NOCc1c(Cl)cccc1Cl` the Potency was active: 16.4 µM.
With `O=C(c1cc(-c2ccc(Cl)cc2)on1)N1CCCCCC1` the activity, negative = less viability was inconclusive: 31%.
With `CC(C)=C1C2CCC1C(C(=O)NCc1ccccc1)C2C(=O)O` (stereo not drawn) the Potency was inconclusive [cytotoxic, full curve, poor fit].
With `O=C(C1=C(O)C(=O)N(Cc2cccnc2)C1c1cccc(Oc2ccccc2)c1)c1ccco1` (stereo not drawn) the Potency was inconclusive [cytotoxic, partial curve].
In the case of `CCOC(=O)c1sc(NC(=O)CCN2CCCCCC2)c(C(=O)OCC)c1C`, the Potency is reported as inconclusive [cytotoxic, single point].
In the case of `CCCCNC(=O)COC(=O)c1ccccc1F`, the Potency is reported as inconclusive [rising, single point].
With `COc1ccccc1N1CCN(Cc2cc(Br)c(O)c3ncccc23)CC1` the Potency was inconclusive [cytotoxic, full curve].
With `Cc1nnc(C)c2c(C)n(-c3ccccc3)c(C)c12` the “activity, negative = less viability” value was inactive: -0.175%.
With `Cc1ccc(C(=O)O/N=C(\N)Cc2ccc([N+](=O)[O-])cc2)c(Cl)c1` the “activity, negative = less viability” value was inactive: -4.31%.
In the case of `COc1ccc(-c2ccc(C(c3c(C)[nH][nH]c3=O)c3c(C)[nH][nH]c3=O)o2)c([N+](=O)[O-])c1`, the Potency is reported as active: 8.2 µM.
In the case of `CCC(C)(C)C1CCC(NC(=O)c2ccc(S(=O)(=O)N3CCOCC3)cc2)CC1` (stereo not drawn), the activity, negative = less viability is reported as inactive: 0.861% [at 9.24 µM].
With `NC(=O)N1CCC2(CC1)NC(=O)N(c1ccccc1)N2` the Potency was active: 10.3 µM.
With `CN(C)S(=O)(=O)c1cccc(NC(=S)NN=C(Cc2ccccc2)Cc2ccccc2)c1` the “activity, negative = less viability” value was inactive: 5.59%.
In the case of `O=C(Nc1cccnc1)c1ccc(-c2ccc(Cl)cc2)o1`, the Potency is reported as inconclusive [rising, single point].
For `CN(C)CC(CCCCC(CN(C)C)C(=O)c1ccccc1)C(=O)c1ccccc1` (stereo not drawn), the Potency was inconclusive [cytotoxic, partial curve].
In the case of `CC(=O)O[C@]1(C(C)=O)CC[C@H]2[C@@H]3C=C(C)C4=CC(=O)CC[C@@H]4[C@H]3CC[C@@]21C`, the activity, negative = less viability is reported as inconclusive: 26.3%.
With `CCc1cc2c(=O)n(CCCOC)c(SCC(=O)Nc3oc(C)c4c(C)n[nH]c(=O)c34)nc2s1` the “activity, negative = less viability” value was inactive: -0.155%.
